This is one part of the list.
tested on: PF3D7_0420300 AP2 domain 1 (GST-tagged); assay: gcPBM binding intensity (ln(normalized median fluorescence intensity)); higher = stronger DNA binding
In short: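 Binding intensity values are the highest Masliner-normalised natural-log median intensity among replicate spots of either probe orientation. The binding step lasted 1 h in 1× PBS with 1% milk, 0.2 mg/ml BSA, 0.5% salmon testes DNA and 0.03% Triton X-100, using GST-tagged P. falciparum DNA-binding domains expressed in E. coli on an Agilent 4 × 180k array of primer-extended double-stranded 36-bp intergenic genomic probes plus negative controls. Alexa488 anti-GST antibody and a 488 nm scan detected bound protein.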

| Sequence | gcPBM binding intensity (ln) |
| --- | --- |
| TTTTTTCATTAGAAAACATGCAAATGTTTTTCACTT [TGCATGCA_site127] | 8.98 |
| CTTTTTTTAATATGCACACATATATTTTATATATTA [CACACA_site2077] | 9.44 |
| TATTCATTTATAAGCTGTACACATTAATTTGAGCTA [XGTACX_site3616] | 9.08 |
| ATTAGGATATATTAAAGTACTAATATAATACATTTT [XGTACX_site7386] | 9.15 |
| ATATAGTATTAATTTGCATGTCATGTATTAGGTCGA [TGCATGCA_site540] | 9.25 |
| TTTTATATTTTTTGTGGTACATTTAGAGAACCAAAA [XGTACX_site1695] | 8.74 |
| TGTAAGTTGATATAATGTACATGTTTGATTTTTTTT [XGTACX_site7687] | 9.4 |
| AAAAAGGGTATTATTACACACACGTAAATATTAATA [CACACA_site101] | 9.61 |
| AGATTTATACAAATATGTACACACTAAATATATATT [XGTACX_site864] | 9.44 |
| ATAATTATCATAGGATGTACATATTTATTTTGTATA [XGTACX_site7797] | 9.22 |
| ATATGTTAAATTATTCGTACGTAAAAAAAAATGGAT [XGTACX_site3465] | 9.43 |
| TAATTTCATCATATTTGTTCCTTCTCAAAATTTTTT [CACACA_negctrl_site217] | 9.21 |
| GCATTATTTACCACAACACACAAATATTTACCAATC [CACACA_site2669] | 9.59 |
| TTCCTAAGAATAATCAGTACACATAAAAAGAACATA [XGTACX_site7861] | 9.43 |
| ACTATATATTTAATATGTACACATATTTCTGTCGAT [XGTACX_site6878] | 9.32 |
| ATATATTTGATTTACACACTTACAATGTATATAAAT [CACACA_site2993] | 9.52 |
| AAAGAAATAAGGTGCACACATATACAGATATATATA [CACACA_site4399] | 9.66 |
| CTCTTTTTTTGCAAAAGTACAAATGGGGATATATTT [XGTACX_site5813] | 9.29 |
| TTACATATTTTTTAACGTACATAAATATATATGTAT [XGTACX_site8406] | 9.17 |
| TTAAATAAAAAAATAACACACATATAAATATATATG [CACACA_site3175] | 9.38 |
| ACTCAAACCTTTAGAGTGCAAAAAAAAAAAAAAAAA [GTGCAC_site9952] | 8.51 |
| TTGTAAAAATTAATACATATATATATATATATATAT [CACACA_negctrl_site6] | 8.99 |
| TTGTTTCTTAAATTATTTATTTTATATTAAAAAAAA [XGTACX_negctrl_site224] | 8.73 |
| AAGAAAATGAAAAAGTAAAAACATATATTAAATATA [TGCATGCA_negctrl_site123] | 9.27 |

— the supplement of paper PMC11417369
